For orientation: IC50 means the concentration at which inhibition is half-maximal. Higher therefore signals lower potency.

In assay [1] the target is T1, Human ALCAM (28–501)-6xhistidine tag (human, UniProt Q13740).
T1 construct: human ALCAM, residues 28-501, all five extracellular immunoglobulin domains; also called hALCAM; source: CHO cells, in-house, purified (Ni-NTA agarose)
Briefly: ELISA; CD6 competition ELISA: plate coated with hALCAM (5 µg/mL in PBS); fixed murine CD6-Fc (0.25 µg/mL) with antibody 2000 nM to 0.002 nM in PBS, 2 h RT; bound CD6-Fc detected with HRP-coupled antihuman IgG. The note with it: both partners purified. (In an ELISA, binding on a coated surface is turned into a signal by an enzyme label.)

Assay [2] concerns the target T1, Human ALCAM (28–501)-6xhistidine tag. The description is as above. Particulars: both partners purified. This is another data set of the same source.

T1 sequence (Q13740 28-501): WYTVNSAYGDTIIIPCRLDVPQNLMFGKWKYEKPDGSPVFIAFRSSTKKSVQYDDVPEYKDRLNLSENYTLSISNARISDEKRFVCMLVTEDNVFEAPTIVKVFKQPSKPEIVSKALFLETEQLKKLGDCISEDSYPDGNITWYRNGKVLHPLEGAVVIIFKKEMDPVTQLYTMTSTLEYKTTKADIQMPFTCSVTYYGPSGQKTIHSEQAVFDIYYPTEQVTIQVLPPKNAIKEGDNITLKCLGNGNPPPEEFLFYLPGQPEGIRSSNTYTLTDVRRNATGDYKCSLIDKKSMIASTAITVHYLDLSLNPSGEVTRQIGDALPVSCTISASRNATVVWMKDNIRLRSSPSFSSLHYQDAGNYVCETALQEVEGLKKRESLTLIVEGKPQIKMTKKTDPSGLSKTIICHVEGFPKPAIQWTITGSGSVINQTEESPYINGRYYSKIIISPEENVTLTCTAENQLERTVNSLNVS

B1: IF8-Fc (Fc fusion)
VH: [no letters for about 100 residues]GYVAFDYWGQGTLVTVSS
VL: SSELTQDPAVSVALGQTVRITCQGDSLRSYYASWYQQKPGQAPVLVIYGKNNRPSGIPDRFSGSSSGNTASLTITGAQAEDEADYYCNSSPPFSAEVVFGGGTKLTVL
notes: CDR1 QGDSLRSYYAS, CDR2 GKNNRPS, CDR3 NSSPPFSAEVV; scFv IF8 with the Fc fragment of murine IgG1 appended; Labelled with AF647 for flow cytometry; also called bivalent scFv-Fc fusion protein of IF8; parental antibody IF8-Fc
B1 displayed an IC50 in assay [1] of 7.33 ± 3.91 nM.

B2: db V200G1 (other)
VH: [no letters for about 100 residues]GYVAFDYWGQGTLVTVSS
VL: SSVLTQPPSVSVAPGQTARITCQGDSLRSGYASWYQQKPGQAPVLVVYGKTGRPSGIPERFSGSSSGNTATLTISRVEAGDEADYYCNSSPPFSAEVVFGGGTKLTVL
notes: as the VH of m10 (V200G1): VH of OPT with CDR1 STGAMS; linker; Bivalent two-chain diabody; also called V200G1 in db format; source: CHO cells, transient gene expression, purified (Protein A)
B2: the binding result in assay [2] was “binds”.

B3: db V2D7 (other)
VH: [no letters for about 100 residues]GYVAFDYWGQGTLVTVSS
VL: SSVLTQPPSVSVAPGQTARITCQGDSLRSGYASWYQQKPGQAPVLVVYGKNNRPSGIPERFSGSSSGNTATLTISRVEAGDEADYYCNSSPPFSAEVVFGGGTKLTVL
notes: as the VH of m9 (V2D7): VH of OPT with CDR1 STGAMS; linker; Bivalent two-chain diabody (24 kDa chain, 48 kDa native); also called diabody V2D7; V2D7 db; source: CHO cells, transient gene expression, purified (Protein A)
For the molecule B3, in assay [1], the IC50 worked out at 13.4 ± 5.47 nM.

The record behind these values is PMC10385607, “Optimization and Characterization of Novel ALCAM-Targeting Antibody Fragments for Transepithelial Delivery” (Pharmaceutics, 2023).
